Test results published in the BET-seq Pho4 binding data (Le et al. 2018).
The other results are listed elsewhere or left out. These are noisy estimates, calculated here from bound and input reads.

These sequences were tested against T1, Pho4 (S. cerevisiae) (UniProt P07270) (assay: relative binding free energy (BET-seq); higher = weaker binding). Conditions: reference: library average.
T1 sequence: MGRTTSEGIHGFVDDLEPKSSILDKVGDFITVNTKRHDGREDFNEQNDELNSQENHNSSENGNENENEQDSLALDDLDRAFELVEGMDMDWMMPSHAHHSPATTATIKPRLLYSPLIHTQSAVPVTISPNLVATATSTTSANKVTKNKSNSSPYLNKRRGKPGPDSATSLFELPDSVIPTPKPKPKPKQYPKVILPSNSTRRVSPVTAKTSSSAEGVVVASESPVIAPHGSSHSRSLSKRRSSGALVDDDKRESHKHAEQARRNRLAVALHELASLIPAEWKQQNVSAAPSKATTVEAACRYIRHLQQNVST

Sequence | relative binding free energy [kcal/mol]
CTGAGCACGTGTAGGT | -0.04
GTTAACACGTGTTGCT | 0.07
GGTACCACGTGGTGCG | -0.17
TGTTTCACGTGAAATT | 0.44
CTGATCACGTGGGATG | 0.13
TTTGTCACGTGTGTAC | 0.24
ATTTGCACGTGCAGCT | 0.05
ATGGACACGTGGGAAT | -0.03
GGAGGCACGTGTGCAG | -0.06
TGCGACACGTGAGGGG | 0.26
ATGTTCACGTGCTGCG | 0.23
TTTTGCACGTGCGCAG | 0.04
GGGAGCACGTGCTGCG | -0.17
TGGTGCACGTGCGTGT | -0.12
ATGTTCACGTGTTAAA | 0.32
CTGGGCACGTGATGCT | 0.08
GCTGTCACGTGATTGT | 0.09
AGTGTCACGTGCGTTG | -0.07
TGGATCACGTGTATTA | 0.21
TCTGACACGTGTGCGG | 0.08
ATCATCACGTGTGTTT | 0.14

Sequence | relative binding free energy [kcal/mol]
TTAAGCACGTGATTTT | 0.11
AAGGTCACGTGATCAT | 0.27
GGTTACACGTGGCGAT | 0.07
TTGTACACGTGTCCGT | 0.11
ATCGCCACGTGGGAGG | 0.01
GTGCTCACGTGAGGTC | 0.39
ATTATCACGTGGATGA | 0.26
TAAGTCACGTGTTAGT | 0.07
TGCGGCACGTGTGTTT | 0.04
GGCTACACGTGTCTGG | 0.15
CTTTACACGTGGAGTT | 0.18
GCTGTCACGTGTGTTG | 0.16
TGTATCACGTGGCTAG | -0.03
TAGTACACGTGGAGAT | -0.01
TAATTCACGTGTGGCT | 0.24
GGGTACACGTGTATAA | 0.09
TCGTACACGTGTTTGA | -0.04
AGATGCACGTGGCGAG | -0.02
CGTTGCACGTGCGGCG | 0.09
GTTGTCACGTGCGGAG | 0.04
GTTGGCACGTGAAATT | 0.39

Sequence | relative binding free energy [kcal/mol]
GTGTACACGTGCTTGG | -0.02
TCTAGCACGTGATGTA | 0.16
GATAGCACGTGGGGCC | 0.12
CTTCACACGTGTTTGG | 0.13
CGTTCCACGTGTGGTG | 0.11
CTGTCCACGTGTTGGG | 0.13
GAGTGCACGTGAGCGG | 0.25
AAGTACACGTGTGAGT | 0.15
TCGGTCACGTGAGGCT | 0.2
GTTTCCACGTGCTGGT | -0.01
GGATTCACGTGAGGGT | 0.43
TTTGGCACGTGGATTG | -0.03
TGGTTCACGTGTGTCC | 0.16
TTCGACACGTGTTGGG | 0.05
TATTGCACGTGCGTTG | 0.01
TCTATCACGTGTTGTA | 0.15
TTGGGCACGTGTGTGC | -0.04
CGGATCACGTGTGGTT | 0.13
GTTACCACGTGGGGTA | -0.15
GGGGGCACGTGTGCAG | -0.02
TATAGCACGTGTCTTT | -0.14
